Results reported in the supplement of paper PMC8728848.
The list shows a part of the results.

Key:
Test in all cases: glycan array binding signal (z-score within array); higher = stronger binding
Conditions in all cases: glycan notation: IUPAC condensed, linker removed
Gal(b1-3)Gal = target: Gal(b1-3)Gal
In short: (§1)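 The binding signal is a Z-score computed within each array. Data were drawn from 3228 arrays in the Consortium for Functional Glycomics database, restricted to those with a known protein sequence. Scores were averaged over arrays of the same protein sequence at different concentrations or buffers, and over linkers, and negative values can be taken as non-binding.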

Gal(b1-3)Gal(b1-4)GlcNAc = target: Gal(b1-3)Gal(b1-4)GlcNAc
In short: as §1

[1] = target: Gal(b1-3)Gal(b1-4)GlcNAc(b1-2)Man(a1-3)[Gal(b1-3)Gal(b1-4)GlcNAc(b1-2)Man(a1-6)]Man(b1-4)GlcNAc(b1-4)GlcNAc
In short: as §1

Gal(b1-3)GalNAc = target: Gal(b1-3)GalNAc
In short: as §1

[2] = target: Gal(b1-3)GalNAc(a1-3)[Fuc(a1-2)]Gal(b1-4)Glc
In short: as §1

[3] = target: Gal(b1-3)GalNAc(a1-3)[Fuc(a1-2)]Gal(b1-4)GlcNAc
In short: as §1

[4] = target: Gal(b1-3)GalNAc(b1-3)Gal(a1-4)Gal(b1-4)Glc
In short: as §1

[5] = target: Gal(b1-3)GalNAc(b1-4)Gal(b1-4)Glc
In short: as §1

[6] = target: Gal(b1-3)GalNAc(b1-4)[Neu5Ac(a2-3)]Gal(b1-4)Glc
In short: as §1

Gal(b1-3)GlcNAc = target: Gal(b1-3)GlcNAc
In short: as §1

[7] = target: Gal(b1-3)GlcNAc(b1-2)Man(a1-3)[Gal(b1-3)GlcNAc(b1-2)Man(a1-6)]Man(b1-4)GlcNAc(b1-4)GlcNAc
In short: as §1

[8] = target: Gal(b1-3)GlcNAc(b1-2)Man(a1-3)[Gal(b1-3)GlcNAc(b1-2)Man(a1-6)]Man(b1-4)GlcNAc(b1-4)[Fuc(a1-6)]GlcNAc
In short: as §1

[9] = target: Gal(b1-3)GlcNAc(b1-3)Gal(b1-3)GlcNAc
In short: as §1

[10] = target: Gal(b1-3)GlcNAc(b1-3)Gal(b1-4)Glc
In short: as §1

[11] = target: Gal(b1-3)GlcNAc(b1-3)Gal(b1-4)GlcNAc
In short: as §1

[12] = target: Gal(b1-3)[Fuc(a1-4)]GlcNAc
In short: as §1

[13] = target: Gal(b1-3)[Fuc(a1-4)]GlcNAc(b1-2)Man(a1-3)[Gal(b1-3)[Fuc(a1-4)]GlcNAc(b1-2)Man(a1-6)]Man(b1-4)GlcNAc(b1-4)GlcNAc
In short: as §1

[14] = target: Gal(b1-3)[Fuc(a1-4)]GlcNAc(b1-2)Man(a1-3)[Gal(b1-3)[Fuc(a1-4)]GlcNAc(b1-2)Man(a1-6)]Man(b1-4)GlcNAc(b1-4)[Fuc(a1-6)]GlcNAc
In short: as §1

[15] = target: Gal(b1-3)[Fuc(a1-4)]GlcNAc(b1-3)Gal(b1-3)[Fuc(a1-4)]GlcNAc
In short: as §1

[16] = target: Gal(b1-3)[Fuc(a1-4)]GlcNAc(b1-3)Gal(b1-4)GlcNAc
In short: as §1

[17] = target: Gal(b1-3)[Fuc(a1-4)]GlcNAc(b1-3)Gal(b1-4)[Fuc(a1-3)]GlcNAc
In short: as §1

[18] = target: Gal(b1-3)[GlcNAc(b1-6)]GalNAc
In short: as §1

[19] = target: Gal(b1-3)[Neu5Ac(a2-6)]GalNAc
In short: as §1

[20] = target: Gal(b1-3)[Neu5Ac(a2-6)]GlcNAc(b1-6)Gal(b1-4)Glc
In short: as §1

[21] = target: Gal(b1-3)[Neu5Ac(b2-6)]GalNAc
In short: as §1

[22] = target: Gal(b1-4)GalNAc(a1-3)[Fuc(a1-2)]Gal(b1-4)GlcNAc
In short: as §1

[23] = target: Gal(b1-4)GalNAc(b1-3)[Fuc(a1-2)]Gal(b1-4)GlcNAc
In short: as §1

Gal(b1-4)Glc = target: Gal(b1-4)Glc
In short: as §1

Gal(b1-4)Glc6S = target: Gal(b1-4)Glc6S
In short: as §1

Gal(b1-4)GlcNAc = target: Gal(b1-4)GlcNAc
In short: as §1

[24] = target: Gal(b1-4)GlcNAc(a1-6)Gal(b1-4)GlcNAc
In short: as §1

[25] = target: Gal(b1-4)GlcNAc(b1-2)Man(a1-3)Man(b1-4)GlcNAc(b1-4)GlcNAc
In short: as §1

[26] = target: Gal(b1-4)GlcNAc(b1-2)Man(a1-3)[Gal(b1-4)GlcNAc(b1-2)Man(a1-6)]Man(b1-4)GlcNAc(b1-4)GlcNAc
In short: as §1

[27] = target: Gal(b1-4)GlcNAc(b1-2)Man(a1-3)[Gal(b1-4)GlcNAc(b1-2)Man(a1-6)]Man(b1-4)GlcNAc(b1-4)[Fuc(a1-6)]GlcNAc
In short: as §1

[28] = target: Gal(b1-4)GlcNAc(b1-2)Man(a1-3)[Man(a1-6)]Man(b1-4)GlcNAc(b1-4)GlcNAc
In short: as §1

[29] = target: Gal(b1-4)GlcNAc(b1-2)Man(a1-6)Man(b1-4)GlcNAc(b1-4)GlcNAc
In short: as §1

[30] = target: Gal(b1-4)GlcNAc(b1-2)Man(a1-6)[Man(a1-3)]Man(b1-4)GlcNAc(b1-4)GlcNAc
In short: as §1

B1: Ficolin B (Rattus norvegicus), P57756 (protein)
chain: MVLGSAALFVLSLCVTELTLHAADTCPEVKVLDLEGSNKLTILQGCPGLPGALGPKGEAGAKGDRGESGLPGHPGKAGPTGPKGDRGEKGVRGEKGDTGPSQSCATGPRTCKELLTRGYFLTGWYTIYLPDCRPLTVLCDMDTDGGGWTVFQRRIDGTVDFFRDWTSYKQGFGSQLGEFWLGNDNIHALTTQGTNELRVDLADFDGNHDFAKYSSFQIQGEAEKYKLILGNFLGGGAGDSLTSQNNMLFSTKDQDNDQGSSNCAVRYHGAWWYSDCHTSNLNGLYLRGLHKSYANGVNWKSWKGYNYSYKVSEMKVRLI
glycan array binding signal (z-score) (Gal(b1-3)Gal): -0.101 | glycan array binding signal (z-score) (Gal(b1-3)Gal(b1-4)GlcNAc): -0.18 | glycan array binding signal (z-score) [1]: -0.187 | glycan array binding signal (z-score) (Gal(b1-3)GalNAc): -0.164 | glycan array binding signal (z-score) [2]: -0.235 | glycan array binding signal (z-score) [3]: -0.215 | glycan array binding signal (z-score) [4]: -0.168 | glycan array binding signal (z-score) [5]: -0.207 | glycan array binding signal (z-score) [6]: -0.038 | glycan array binding signal (z-score) (Gal(b1-3)GlcNAc): -0.051 | glycan array binding signal (z-score) [7]: -0.194 | glycan array binding signal (z-score) [8]: -0.167 | glycan array binding signal (z-score) [9]: -0.118 | glycan array binding signal (z-score) [10]: -0.172 | glycan array binding signal (z-score) [11]: -0.224 | glycan array binding signal (z-score) [12]: -0.168 | glycan array binding signal (z-score) [13]: 0.238 | glycan array binding signal (z-score) [14]: 0.379 | glycan array binding signal (z-score) [15]: -0.084 | glycan array binding signal (z-score) [16]: -0.093 | glycan array binding signal (z-score) [17]: -0.222 | glycan array binding signal (z-score) [18]: -0.205 | glycan array binding signal (z-score) [19]: -0.174 | glycan array binding signal (z-score) [20]: -0.138 | glycan array binding signal (z-score) [21]: -0.179 | glycan array binding signal (z-score) [22]: -0.19 | glycan array binding signal (z-score) [23]: -0.2 | glycan array binding signal (z-score) (Gal(b1-4)Glc): -0.191 | glycan array binding signal (z-score) (Gal(b1-4)Glc6S): -0.175 | glycan array binding signal (z-score) (Gal(b1-4)GlcNAc): -0.212 | glycan array binding signal (z-score) [24]: -0.189 | glycan array binding signal (z-score) [25]: -0.198 | glycan array binding signal (z-score) [26]: -0.223 | glycan array binding signal (z-score) [27]: -0.209 | glycan array binding signal (z-score) [28]: -0.056 | glycan array binding signal (z-score) [29]: -0.21 | glycan array binding signal (z-score) [30]: -0.239
